In the supplement of paper PMC10338343:
± gives the standard deviation. The list shows a part of the results, in another mix than the full data.

Tested on: MIWI (PIWIL1) piRISC loaded with L1MC piRNA (30 nt)
Test: pre-steady-state target cleavage rate (min^-1); MIWI and MILI are mouse PIWI proteins and EfPiwi is from a freshwater sponge; tags in brackets are library labels; higher = faster piRNA-guided slicing of the target
Conditions: guide: L1MC piRNA 5'p-UAACUAAAUACUAUGCAAGCUGUAGGUCCU
Outline: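 The pre-steady-state cleavage rate came from a burst-and-steady-state fit to pooled data from three Cleave-'n-Seq trials, in which uncleaved targets were sequenced and normalised to depth and to weakly complementary targets. Each reaction held 0.1 nM transcribed, DNA-blocked target RNA library and 1 nM active affinity-purified piRISC carrying one synthetic guide, with or without 500 nM GTSF1 partner protein, in HEPES–potassium acetate buffer at 33 °C for 0–8 or 0–960 min. k3 was capped at 0.0001 min^-1.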

[1] = auxiliary factor: 500 nM mouse GTSF1
[2] = auxiliary factor: none (no GTSF1)

| Sequence | pre-steady-state target cleavage rate [1] | pre-steady-state target cleavage rate [2] |
| --- | --- | --- |
| AGGACCAACAGCUUGCAUAGUAUUUACUUA | 0.29 ± 0.027 | 0.0456 ± 0.0073 |
| UCCUGCUACAGCUUGGAUAGAAUUUAGUUA | 0.356 ± 0.046 | 0.0126 ± 0.0037 |
| UCCUGCUACAGCUUGCAUAGUAUUUAGGUUA | 0.604 ± 0.095 | 0.0187 ± 0.0056 |
| UCCUGGUUCAGCUUGCAUAGUAUUAAGUUA | 0.454 ± 0.049 | 0.0235 ± 0.0062 |
| UCGACCUACCGCUUGCAUAGUAUUUAGUUA | 1.64 ± 0.069 | 0.0745 ± 0.015 |
| UCCUCCAACAGCUUGCUUAGUAUUUAGUUA | 1.28 ± 0.054 | 0.0363 ± 0.0081 |
| UCCUGGAUCACCUUGCAUAGUAUUUAGUUA | 0.502 ± 0.028 | 0.0141 ± 0.0042 |
| UCCUGGAUCAGCUUGCAUAGUUUUUAGUAA | 0.163 ± 0.019 | 0.02 ± 0.0057 |
| UGGACCUACAGCUUGCAUUGUAUUUACUUA | 0.403 ± 0.032 | 0.0248 ± 0.0066 |
| UCCUGGAUCUGCUUGCAUUGUAUUUAGUUA | 0.228 ± 0.037 | 0.0147 ± 0.0049 |
| UCCUGGAACAGCUUGCAUAGUAUUUACUUA | 0.224 ± 0.021 | 0.0379 ± 0.0065 |
| UCCUGGAACAGCUUGCAUUGUAUUUUGUUA | 0.386 ± 0.028 | 0.0138 ± 0.0053 |
| UCCACCUUCAGCUUCCAUAGUAUUUAGUUA | 0.0557 ± 0.017 | 0.00309 ± 0.0018 |
| UCCUGGAUCAGAUUGCAUAGUAUUUAGUUA | 0.442 ± 0.028 | 0.00557 ± 0.0017 |
| UCCUGCUACAGGAAGCAUAGUAUUUAGUAA | 0.403 ± 0.063 | 0.00245 ± 0.0018 |
| UCCUGGUACAGCUUGCAUAGAAUUUAGAAA | 0.11 ± 0.039 | 0.00303 ± 0.0024 |
| UCCACCAACAGCUUGCAUAGUUUUUAGUUA | 0.367 ± 0.021 | 0.0293 ± 0.0067 |
| UCCUGGAUGUCCUUGCAUAGUAUGUAGUUA | 0.0151 ± 0.0053 | 0.0033 ± 0.0027 |
| UCCUGGUACAGCUUGCAUAGUAUUAAGUAA | 0.284 ± 0.059 | 0.00479 ± 0.0028 |
| UCCUGGAUGUGCUUGCAUAGUAUUUAGCUA | 0.0174 ± 0.0073 | 0.00598 ± 0.0029 |
